{"source": "PubChem BioAssay AID504832", "about": "(National Center for Advancing Translational Sciences (NCATS), 2011)", "note": "Hit rate of the full screen: of about 310,000 compounds, about 18,000 (5.8%) were called active. The shares of active, inactive and inconclusive entries below differ from those in the screen. Calls follow the shape of the dose curve; as a rule, active = well fitted inhibition curve with a large enough effect; inconclusive = small, poorly fitted or top-dose-only effect, or another doubt; inactive = no such curve, though single readings can be large or run the other way. Potencies of inconclusive entries are left out as doubtful fits. % is scaled to controls: 0 for no effect and ±100 for the full control effect; potency is read from the fitted curve at half-maximal effect; tags tell the direction and shape of the fitted curve.", "data": [{"test": "Primary qHTS for delayed death inhibitors of the malarial parasite plastid, 48 hour incubation", "conditions": "P. falciparum luciferase growth in erythrocytes; series mostly up to 28.7 µM; activity change, negative = inhibition: at the top concentration", "outline": "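Erythrocytes infected with P. falciparum carrying an integrated firefly luciferase reporter (2% hematocrit, 0.1% parasitemia final) were exposed to compounds in RPMI 1640 with 0.5% Albumax at 37 C, 5% CO2. Growth inhibition was scored as reduced luminescence.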", "values": [{"smiles": "O=C(/C=N/O)NCc1ccncc1", "activity change, negative = inhibition": "inactive: 12.1%"}, {"smiles": "Cc1ccc(N=Nc2c(C)[nH]n(C(N)=S)c2=O)cc1", "Potency": "inconclusive [inhibitor, partial curve, poor fit]"}, {"smiles": "Cc1cc(=O)oc2cc(OCc3ccc(C(=O)N4CCN(c5ccccc5)CC4)cc3)ccc12", "Potency": "inconclusive [inhibitor, single point]"}, {"smiles": "C[C@H](NC(=O)N1CCn2c1nc1ccccc12)C(=O)NCC1CCCO1", "note": "(some centres not stated)", "activity change, negative = inhibition": "inactive: -29.8%"}, {"smiles": "O=C(NNC(=O)c1ccccc1O)c1ccc(Cl)c(S(=O)(=O)N2CCc3ccccc32)c1", "Potency": "inconclusive [inhibitor, single point]"}, {"smiles": "O=C(O)/C=C/C(=O)Nc1ccc(Cc2ccc(NC(=O)/C=C/C(=O)O)cc2)cc1", "activity change, negative = inhibition": "inactive: 4.08%"}, {"smiles": "COc1ccc(/C=N/Nc2nc(C)cc(=O)[nH]2)cc1OC", "Potency": "inconclusive [inhibitor, single point]"}, {"smiles": "COc1ccccc1NS(=O)(=O)c1cc(NC(=O)c2ccc3c(c2)OCCO3)ccc1C", "Potency": "inconclusive [inhibitor, single point]"}, {"smiles": "COc1ccc(N2CCN(Cc3cc(=O)oc4cc(C)c(Cl)cc34)CC2)cc1", "activity change, negative = inhibition": "inactive: -5.24%"}, {"smiles": "COc1cccc(N2CCN(C(=O)CCc3nnc4ccc(N5CCCC5)nn34)CC2)c1", "Potency": "inconclusive [inhibitor, single point]"}, {"smiles": "Cc1ccc(C(C(=O)NC2CCCC2)N(Cc2ccc3c(c2)OCO3)C(=O)c2snc(C(N)=O)c2N)cc1", "note": "(configuration not stated)", "Potency": "active: 7.38 µM"}, {"smiles": "Cc1nc(NC(=O)c2ccc(OCC(C)C)cc2)sc1Cc1ccc2c(c1)OCO2", "Potency": "inconclusive [inhibitor, single point]"}, {"smiles": "O=C(NC(NC(=S)Nc1ccccc1C(=O)O)C(Cl)(Cl)Cl)c1ccccc1", "note": "(configuration not stated)", "Potency": "inconclusive [inhibitor, single point]"}, {"smiles": "CN1CCN(S(=O)(=O)c2cccc(C(=O)Nc3sc4c(c3-c3nc5ccccc5[nH]3)CCCC4)c2)CC1", "Potency": "active: 2.94 µM"}, {"smiles": "COc1ccc(S(=O)(=O)N(C)CC(=O)N2CCCCCC2)cc1OC", "activity change, negative = inhibition": "inactive: -4.3%"}, {"smiles": "CCOc1ccccc1C(=O)N[C@H](C(=O)OCc1cc(=O)oc2cc(C)ccc12)C(C)C", "Potency": "inconclusive [inhibitor, single point]"}, {"smiles": "CCN(CC)C1=NC=CC(c2ccccc2)=CC1C", "note": "(configuration not stated)", "activity change, negative = inhibition": "inactive: -23.6%"}, {"smiles": "Oc1ccc2ccccc2c1C=NCc1ccccc1", "Potency": "inconclusive [inhibitor, partial curve]"}, {"smiles": "COc1ccc(NC(=O)c2cc3ccc4c5ccccc5[nH]c4c3cc2O)cc1", "Potency": "inconclusive [inhibitor, partial curve, poor fit]"}, {"smiles": "COC(=O)c1c(N2C(=O)[C@H]3[C@@H](C2=O)[C@]2(C(=O)Nc4ccc(C)cc42)N2CCC[C@@H]32)sc(C)c1C", "activity change, negative = inhibition": "inactive: 4.68%"}, {"smiles": "CC1CN(S(=O)(=O)c2cccc(C(=O)OCC(=O)NCc3ccccc3)c2)CC(C)O1", "note": "(configuration not stated)", "Potency": "inconclusive [inhibitor, single point]"}, {"smiles": "O=C(N/N=C(\\c1ccccc1)c1cccnc1)C(O)(c1ccccc1)c1ccccc1", "Potency": "inconclusive [inhibitor, single point]"}, {"smiles": "COC(=O)c1c(C)[nH]c(C(=O)C(C)OC(=O)C2CC2)c1C", "note": "(configuration not stated)", "Potency": "inconclusive [inhibitor, single point]"}, {"smiles": "COc1ccc(Nc2nnc(SCC(=O)NC(=O)Nc3ccc4c(c3)OCCO4)s2)cc1", "activity change, negative = inhibition": "inactive: 8.35%"}, {"smiles": "Cc1cc(C(=O)OCC(=O)N2CCC(c3ccccc3)=N2)ccc1[N+](=O)[O-]", "Potency": "inconclusive [inhibitor, partial curve, poor fit]"}, {"smiles": "COc1ccc(/C=N/NC(=O)C[n+]2ccccc2)c(OC)c1OC", "Potency": "inconclusive [inhibitor, single point]"}, {"smiles": "COc1cc(/C=N/N2CCN(Cc3ccc(Cl)cc3)CC2)cc(Br)c1O", "activity change, negative = inhibition": "inactive: -16.1%"}, {"smiles": "CCn1c(=O)c(=O)n(CC)c2cc(S(=O)(=O)Nc3ccc(C)cc3)ccc21", "Potency": "inconclusive [inhibitor, partial curve]"}, {"smiles": "O=C(Nc1ccccc1Oc1cccnc1)C1CCCN(Cc2ccc(F)cc2)C1", "note": "(configuration not stated)", "Potency": "inconclusive [inhibitor, partial curve]"}, {"smiles": "Cc1ccc(S(=O)(=O)N(C)C)cc1NC(=O)c1cc(=O)[nH]c2ccccc12", "Potency": "inconclusive [inhibitor, single point]"}, {"smiles": "C[n+]1cn(CC(O)COCc2ccccc2)c2ccccc21", "note": "(configuration not stated)", "Potency": "inconclusive [inhibitor, full curve]"}, {"smiles": "CC(C)CNC(=O)c1cc(-c2ccc(Br)cc2)on1", "activity change, negative = inhibition": "inactive: 232%"}, {"smiles": "Cc1ccc(-c2c(C)c(-c3ccc(F)cc3)nc(N)c2C#N)o1", "activity change, negative = inhibition": "inactive: -5.8%"}, {"smiles": "Cc1ccc(-c2noc(CSc3nnc(-c4ccncc4)n3-c3ccc(C)cc3)n2)cc1", "Potency": "inconclusive [inhibitor, partial curve, poor fit]"}, {"smiles": "Cc1ccc(Cl)cc1N1CCN(S(=O)(=O)c2c(C)nc3scc(C)n3c2=O)CC1", "Potency": "inconclusive [inhibitor, single point]"}, {"smiles": "Cc1ccc2nc(-c3ccccc3)cc(C(=O)N3CC(C)OC(C)C3)c2c1", "note": "(configuration not stated)", "Potency": "active: 10.4 µM"}, {"smiles": "COc1ccc(Nc2cc(C(=O)NCc3cccnc3)c3ccccc3n2)c(OC)c1", "activity change, negative = inhibition": "inactive: 10.8%"}, {"smiles": "O=C1/C(=C/c2cccs2)SC(=S)N1CCC(=O)N1CCCCC1CCO", "note": "(configuration not stated)", "Potency": "inconclusive [inhibitor, single point]"}, {"smiles": "O=C(CCCCCn1c(=S)[nH]c2cc3c(cc2c1=O)OCO3)N1CCN(Cc2ccccc2)CC1", "Potency": "active: 11.7 µM"}, {"smiles": "CCOc1cc(CNCCO)cc(Br)c1OCc1ccccc1", "Potency": "inconclusive [inhibitor, single point]"}, {"smiles": "CCCn1c(=O)c2ccccc2n2c(SCc3c(C(=O)OCC)oc4ccccc34)nnc12", "Potency": "inconclusive [inhibitor, partial curve]"}, {"smiles": "CCCC(=O)OCCNC(=O)c1cc2ccccc2oc1=O", "activity change, negative = inhibition": "inactive: 9.61%"}, {"smiles": "O=C(c1ccccc1OC(F)F)N1CCN(S(=O)(=O)c2ccc3c(c2)OCCCO3)CC1", "Potency": "active: 14.7 µM"}, {"smiles": "O=C(CCC(=O)Nc1ccccc1)NNC(=O)c1ccco1", "activity change, negative = inhibition": "inactive: 22.3%"}, {"smiles": "O=C1C=C(c2cccc(Cl)c2)C[C@@H](c2ccc(Cl)cc2)C1", "Potency": "active: 3.29 µM"}, {"smiles": "Cc1ccc(NC(=O)C2CCCN(S(=O)(=O)c3c(C)noc3C)C2)cc1", "note": "(configuration not stated)", "Potency": "inconclusive [inhibitor, full curve, poor fit]"}, {"smiles": "Nc1c(N(Cc2ccccc2)C(=O)CCc2ccccc2)c(=O)[nH]c(=O)n1Cc1ccccc1", "Potency": "inconclusive [inhibitor, partial curve]"}, {"smiles": "Cc1cccc(N2CC(C(=O)Nc3ccccc3N3CCCC3)CC2=O)c1C", "note": "(configuration not stated)", "Potency": "inconclusive [inhibitor, partial curve]"}, {"smiles": "O=C(NC(NC(=S)Nc1cccc(Cl)c1)C(Cl)(Cl)Cl)OCc1ccccc1", "note": "(configuration not stated)", "Potency": "inconclusive [inhibitor, single point]"}, {"smiles": "COC(=O)c1ccc(OCC(O)CN2CCN(CC(O)COc3ccc(C(=O)OC)cc3)CC2)cc1", "note": "(configuration not stated)", "Potency": "inconclusive [inhibitor, partial curve, poor fit]"}, {"smiles": "COc1ccccc1NC(=O)COC(=O)c1ccccc1OCC(=O)Nc1ccc(SC(F)F)cc1", "activity change, negative = inhibition": "inactive: 46.4%"}, {"smiles": "CCOc1ccc(NC(=O)CN(C)C(=O)C2CC(=O)N(CCc3ccccc3)C2)cc1OCC", "note": "(configuration not stated)", "activity change, negative = inhibition": "inactive: -8.81%"}, {"smiles": "Cn1c(Sc2ccc([N+](=O)[O-])cc2C(F)(F)F)nnc1-c1ccccc1", "Potency": "inconclusive [inhibitor, partial curve, poor fit]"}, {"smiles": "CCN(Cc1ccncc1)Cc1c(O)ccc2cc(Br)ccc12", "Potency": "active: 5.86 µM"}, {"smiles": "Cc1cc(=O)n2[nH]c(-c3ccc(Cl)cc3)cc2n1", "Potency": "inconclusive [inhibitor, single point]"}, {"smiles": "O=C(NC(=S)N1CCN(Cc2ccc3c(c2)OCO3)CC1)c1ccc(Cl)cc1", "activity change, negative = inhibition": "inactive: -24.3%"}, {"smiles": "COc1ccc(CCNC(=O)c2cc3c(=O)n(C)c4ccccc4c3n2C)c(OC)c1", "Potency": "inconclusive [inhibitor, partial curve]"}, {"smiles": "O=C(O)c1nn(CCOc2ccc(Br)cc2)c(=O)c2ccccc12", "activity change, negative = inhibition": "inactive: 38.5%"}, {"smiles": "Cc1ccc(C)c(OCC(O)CNC2CCCC2)c1", "note": "(configuration not stated)", "Potency": "inconclusive [inhibitor, partial curve, poor fit]"}, {"smiles": "Oc1cccc(Nc2nc(NCC3CCCO3)c3ccccc3n2)c1", "note": "(configuration not stated)", "Potency": "active: 0.37 µM"}, {"smiles": "CCC1(N(C(C)=O)c2ccc(OC)cc2)C(=O)c2ccccc2C1=O", "Potency": "inconclusive [inhibitor, partial curve, poor fit]"}, {"smiles": "COc1ccc(CC(=O)N(C)Cc2ccc(Cl)cc2)cc1S(=O)(=O)N1CCOCC1", "Potency": "inconclusive [inhibitor, single point]"}, {"smiles": "Cc1cccc(N(C)C(=O)c2cc3c(=O)[nH]c4ccc(C)cc4c3s2)c1", "Potency": "inconclusive [inhibitor, single point]"}, {"smiles": "c1ccc(-c2cn(C[C@H]3CC[C@@H]([C@@H]4CC[C@H](Cn5cc(-c6ccccc6)nn5)O4)O3)nn2)cc1", "Potency": "inconclusive [inhibitor, full curve, poor fit]"}, {"smiles": "CCOc1ccccc1NCc1cc(=O)oc2cc(C)ccc12", "Potency": "inconclusive [inhibitor, single point]"}, {"smiles": "CC(=Nc1cc(C(=O)c2ccccc2)ccc1N)C1=C(O)CC(C)(C)CC1=O", "activity change, negative = inhibition": "inactive: 127%"}, {"smiles": "CCCCCN(C(=O)CCC(=O)OCc1cccc(F)c1)c1c(N)n(CCCC)c(=O)[nH]c1=O", "Potency": "inconclusive [inhibitor, single point]"}]}]}
